Among all 110,000 compounds or so, about 230 (0.21%) showed an effect of 50% or more. The list shows a part of the results.
Molecular target: DPAP1 (Plasmodium falciparum, UniProt Q8IIJ9)
Experiment: primary screen, percent inhibition; read by cleavage of a fluorogenic dipeptide substrate; higher = more effect of the substance
Design: species or system P. falciparum D10 trophozoite lysates; single well
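Further: 30 min substrate incubation versus DMSO and 10 µM JCP410 controls.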

DPAP1, sequence (Q8IIJ9 whole entry, looked up): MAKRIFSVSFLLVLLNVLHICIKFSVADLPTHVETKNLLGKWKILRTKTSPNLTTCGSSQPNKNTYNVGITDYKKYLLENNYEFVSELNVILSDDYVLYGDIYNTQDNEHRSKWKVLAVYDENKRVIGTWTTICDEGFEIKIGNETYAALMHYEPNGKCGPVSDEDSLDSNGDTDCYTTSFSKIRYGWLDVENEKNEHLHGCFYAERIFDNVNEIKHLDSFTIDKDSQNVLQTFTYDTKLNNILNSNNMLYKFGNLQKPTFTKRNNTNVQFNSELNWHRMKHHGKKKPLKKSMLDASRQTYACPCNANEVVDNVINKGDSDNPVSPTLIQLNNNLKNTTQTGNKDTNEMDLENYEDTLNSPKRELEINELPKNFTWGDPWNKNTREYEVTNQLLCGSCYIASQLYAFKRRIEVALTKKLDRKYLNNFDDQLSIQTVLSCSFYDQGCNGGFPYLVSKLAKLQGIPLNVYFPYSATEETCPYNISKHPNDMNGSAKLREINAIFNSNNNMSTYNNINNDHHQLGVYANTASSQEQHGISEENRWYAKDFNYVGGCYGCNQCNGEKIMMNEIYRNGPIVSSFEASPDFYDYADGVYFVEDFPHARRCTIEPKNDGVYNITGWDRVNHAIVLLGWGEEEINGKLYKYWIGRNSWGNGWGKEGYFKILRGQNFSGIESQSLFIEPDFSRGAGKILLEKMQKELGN

First: Cc1cccc(OCC(=O)Nc2ccc(S(=O)(=O)N3CCCCCC3)cc2)c1
Second: Cc1cccc(NC(=O)COc2ccc(Cl)cc2Cl)c1
The “% Inhibition @ 10 uM” value of the first is lower: -6.08% for the first, 2.38% for the second.

First: Cc1oc2ncnc(NC3CCCC3)c2c1C(=O)O
Second: O=C(NC1CCCCCC1)c1ccc(CS(=O)Cc2ccc(Cl)cc2)o1 (stereo not drawn)
The “% Inhibition @ 10 uM” value of the first is lower: -5.76% for the first, 0.951% for the second.

Compared with `Oc1ccc(Br)cc1/C=N/n1cnnc1`, `CC(NC(=O)c1cc(O)nc2ccc(Br)cc12)c1ccccc1` (stereo not drawn) is lower in “% Inhibition @ 10 uM” value: 22.7% for the first, -9.35% for the second.

Compared with `O=C(Cn1c(C(F)(F)F)nc2ccccc21)N1CCCc2ccccc21`, `CCOC(=O)C1=C(CN2CCc3ccccc3C2)NC(=O)NC1c1cccs1` (stereo not drawn) is lower in “% Inhibition @ 10 uM” value: 4.88% for the first, -0.0621% for the second.

First: CCOc1nc(-c2ccccc2)cc(-c2ccccc2)n1
Second: c1ccc(-c2nc3c4cnn(-c5ccccc5)c4ncn3n2)cc1
The “% Inhibition @ 10 uM” value of the first is higher: 3.53% for the first, -6.09% for the second.

First: CC(C)Sc1nnc(N2C(N)=C(C#N)C(c3ccc4c(c3)OCO4)C3=C2CC(C)(C)CC3=O)s1 (stereo not drawn)
Second: CCn1cc(CNC(=O)c2cc(-c3ccc4c(c3)OCO4)nc3ccccc23)c(C)n1
The “% Inhibition @ 10 uM” value of the first is higher: -1.24% for the first, -7% for the second.

First: Cc1ccc(-c2nc3c(c(SCC(=O)N4CCCCC4)n2)Cc2c(CO)cnc(C)c2O3)cc1
Second: CCOC(=O)c1cc(-c2ccc(C)cc2)n(CC(=O)NCc2ccc3c(c2)OCO3)c1C
The “% Inhibition @ 10 uM” value of the first is higher: 4.06% for the first, 1.72% for the second.

First: O=C(Cc1ccccc1)NCCNC(=O)c1c(O)c2ccccc2oc1=O
Second: N#CCNC(=O)C(NC(=O)OCc1ccccc1)SCc1ccccc1 (stereo not drawn)
The “% Inhibition @ 10 uM” value of the first is higher: 6.47% for the first, -6.98% for the second.

Going from `CCOC(=O)/C(C#N)=C1\C(=O)Nc2ccccc21` to `CCOC(=O)c1cnc2cc(F)c(F)cc2c1O`, the “% Inhibition @ 10 uM” value falls from 2.41% to -4.4%.

Going from `O=C(Nc1ncc2c(n1)CC(c1ccccc1Cl)CC2=O)c1ccccc1` (stereo not drawn) to `O=C(Nc1ccc(O)cc1)/C(=C\c1cccs1)NC(=O)c1ccccc1`, the “% Inhibition @ 10 uM” value rises from -6.67% to 0.673%.

Going from `Cc1ccc(CCN2CC(C(=O)NCCCOC(C)C)CC2=O)cc1` (stereo not drawn) to `Cc1ccc(CNC(=O)CN2CC(=O)N3CCCC3C2=O)cc1` (stereo not drawn), the “% Inhibition @ 10 uM” value rises from -1.79% to -1.67%.

Compared with `CCOc1ccc(NC(=O)C(CC(=O)O)Cc2ccc(Br)cc2)cc1` (stereo not drawn), `CCCCOc1ccc(OCC(=O)Nc2nc3ccccc3[nH]2)cc1` is lower in “% Inhibition @ 10 uM” value: 1.13% for the first, -1.43% for the second.

Compared with `Cc1sc(N)nc1-c1ccccc1`, `CN1CCN(C(=O)c2ccc(-c3ccccc3)cc2)CC1` is lower in “% Inhibition @ 10 uM” value: 3.44% for the first, 2.6% for the second.

First: CC1=CSC2=NC(=O)/C(=C/c3ccc(OCc4ccccc4)c(Cl)c3)C(=N)N12
Second: COc1ccc(C=C2C(=O)c3ccccc3C2=O)cc1O
The “% Inhibition @ 10 uM” value of the first is higher: 1.75% for the first, -6.23% for the second.

First: C=CCOc1c(Br)cc(CNC(C)(C)C)cc1OCC
Second: COc1cccc(CNC(C)(C)CO)c1OCc1ccc(Cl)cc1
The “% Inhibition @ 10 uM” value of the first is higher: -5.15% for the first, -8.33% for the second.

First: COc1ccccc1-n1c(CNC(=O)c2ccco2)nnc1SCC(=O)Nc1nnc(C)s1
Second: CCOC(=O)c1cc(-c2ccc(OC)c(S(=O)(=O)NCc3ccco3)c2)on1
The “% Inhibition @ 10 uM” value of the first is higher: 1.08% for the first, -7.04% for the second.

Going from `Cn1c(=O)c2c(nc3n(CCCO)c(-c4ccc(F)cc4)cn23)n(C)c1=O` to `Cn1c(=O)c2c(nc(SCc3cccc(Br)c3)n2C)n(C)c1=O`, the “% Inhibition @ 10 uM” value rises from -0.0959% to 2.67%.

First: CCN(CC)CCN(C)C(C)Cc1ccccc1F (stereo not drawn)
Second: CCN(CC)CC(=O)Nc1c2c(nc3ccccc13)N(c1cccc(C)c1)CC2
The “% Inhibition @ 10 uM” value of the first is lower: -3.42% for the first, 2.22% for the second.

First: c1c2c(cc3c1OCCO3)C1(CCCC1)CNC2
Second: c1cc2c(cc1C1CCCCC1)c1c3n2CCNC3CCC1 (stereo not drawn)
The “% Inhibition @ 10 uM” value of the first is lower: -8.21% for the first, 2.86% for the second.

Going from `COc1ccc(-c2c(Cc3ccccc3)nn3c(-c4ccccc4)cc(C)nc23)cc1` to `O=S(=O)(c1ccccc1)c1nnn2c1nc(NCCc1ccccc1)c1sccc12`, the “% Inhibition @ 10 uM” value falls from -0.436% to -4.04%.

Going from `COc1ccc(CCNC(=O)CCc2c(C)nc3c4cccnc4nn3c2C)c(OC)c1` to `COc1ccc(CC(=O)NCc2cccs2)cc1OC`, the “% Inhibition @ 10 uM” value falls from 4.74% to -3.71%.

Compared with `Cc1cc(C(F)F)nn1CC(=O)Nc1ccccc1Cl`, `COc1ccccc1CNC(=O)c1cccc(Cl)c1` is higher in “% Inhibition @ 10 uM” value: -4.82% for the first, -2.36% for the second.

First: CCN1CCN(Cc2ccc3c(c2)Cc2ccccc2-3)CC1
Second: COc1ccc(CN2CCN(Cc3ccco3)CC2)cc1OCc1ccccc1
The “% Inhibition @ 10 uM” value of the first is higher: 4.51% for the first, -3.06% for the second.

First: Cc1ccc2[nH]c(C3=C(N)N(C4CCCCCCC4)CC3=O)nc2c1
Second: c1cn(CCCNC2CCCCCCC2)cn1
The “% Inhibition @ 10 uM” value of the first is higher: 3.74% for the first, -7.02% for the second.

Compared with `CC(NC(=O)C(O)c1ccccc1)c1ccccc1` (stereo not drawn), `O=C(CCc1ccccc1)Nc1ccc(NS(=O)(=O)c2ccccc2)cc1` is lower in “% Inhibition @ 10 uM” value: 1.04% for the first, -5.13% for the second.

Compared with `CCOc1cc(-c2nc(-c3cc4cc(OC)ccc4nc3O)no2)cc(OCC)c1OCC`, `COc1cccc(NC(=O)c2cc(C)cc(C)c2)c1` is higher in “% Inhibition @ 10 uM” value: -7.33% for the first, 1.84% for the second.

Going from `CC1CCN(c2nc3c(c(=O)n(C)c(=O)n3C)n2CC(=O)c2ccccc2)CC1` to `Cc1nc(O)nc(O)c1C1N2CC3(C)CN1CC(c1ccccc1)(C2)C3=O` (stereo not drawn), the “% Inhibition @ 10 uM” value rises from 0.231% to 2.89%.

Going from `COc1ccc(/C=C/C(=O)Nc2nc(C)c(C)s2)cc1OC` to `COc1ccc(CCNCc2cccc(Cl)c2)cc1OC`, the “% Inhibition @ 10 uM” value falls from 5.94% to -0.467%.

First: CCOC(=O)c1c(NC(=O)C(C)Oc2ccc(F)cc2)sc2c1CCCC2 (stereo not drawn)
Second: Cc1cccc(NS(=O)(=O)c2ccc(F)cc2)c1C
The “% Inhibition @ 10 uM” value of the first is higher: 5.41% for the first, 0.62% for the second.

Going from `COc1cc2c(cc1OC)CN(Cc1cccs1)CC2` to `COc1cccc(C(c2c(O)nc(O)nc2O)N2CCCC(C)C2)c1OC` (stereo not drawn), the “% Inhibition @ 10 uM” value falls from 5.55% to 1.86%.

Going from `O=C(c1cc([N+](=O)[O-])ccc1Cl)N1CCN(c2ccc(Cl)cc2)CC1` to `CN1CCN(C(=O)c2cccc([N+](=O)[O-])c2)CC1`, the “% Inhibition @ 10 uM” value falls from 1.27% to -1.92%.

Compared with `CC(C)c1ccc(NC(=O)c2cccc(Cl)c2)cc1`, `COc1cccc2cc(S(=O)(=O)c3ccc(C(C)C)cc3)c(=O)oc12` is lower in “% Inhibition @ 10 uM” value: 0.634% for the first, -3.1% for the second.

Compared with `Cc1csc(NC(=O)C(CC(C)C)NS(=O)(=O)c2ccc3nc(C)sc3c2)n1` (stereo not drawn), `O=C(c1sc2cccc(Cl)c2c1Cl)N(Cc1ccco1)C1CCS(=O)(=O)C1` (stereo not drawn) is lower in “% Inhibition @ 10 uM” value: 2.12% for the first, -6.5% for the second.

From publication PMC6919601, “Identification of Plasmodium dipeptidyl aminopeptidase allosteric inhibitors by high throughput screening” (PLoS ONE, 2019)
